From publication PMC4336329 (PLoS ONE, 2015)
Screen size: about 310,000 compounds; about 14,000 (4.5%) showed an effect of 50% or more. The effect is printed as a negative number. Some of the results follow.

target: human ether-à-go-go-related gene (hERG) potassium channel (human, UniProt Q12809); assay: primary screen, population patch clamp on CHO cells stably expressing hERG
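Also: peak tail current of the secondary pulse compared with the same well before compound.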

human ether-à-go-go-related gene (hERG) potassium channel, sequence (Q12809 whole entry, looked up): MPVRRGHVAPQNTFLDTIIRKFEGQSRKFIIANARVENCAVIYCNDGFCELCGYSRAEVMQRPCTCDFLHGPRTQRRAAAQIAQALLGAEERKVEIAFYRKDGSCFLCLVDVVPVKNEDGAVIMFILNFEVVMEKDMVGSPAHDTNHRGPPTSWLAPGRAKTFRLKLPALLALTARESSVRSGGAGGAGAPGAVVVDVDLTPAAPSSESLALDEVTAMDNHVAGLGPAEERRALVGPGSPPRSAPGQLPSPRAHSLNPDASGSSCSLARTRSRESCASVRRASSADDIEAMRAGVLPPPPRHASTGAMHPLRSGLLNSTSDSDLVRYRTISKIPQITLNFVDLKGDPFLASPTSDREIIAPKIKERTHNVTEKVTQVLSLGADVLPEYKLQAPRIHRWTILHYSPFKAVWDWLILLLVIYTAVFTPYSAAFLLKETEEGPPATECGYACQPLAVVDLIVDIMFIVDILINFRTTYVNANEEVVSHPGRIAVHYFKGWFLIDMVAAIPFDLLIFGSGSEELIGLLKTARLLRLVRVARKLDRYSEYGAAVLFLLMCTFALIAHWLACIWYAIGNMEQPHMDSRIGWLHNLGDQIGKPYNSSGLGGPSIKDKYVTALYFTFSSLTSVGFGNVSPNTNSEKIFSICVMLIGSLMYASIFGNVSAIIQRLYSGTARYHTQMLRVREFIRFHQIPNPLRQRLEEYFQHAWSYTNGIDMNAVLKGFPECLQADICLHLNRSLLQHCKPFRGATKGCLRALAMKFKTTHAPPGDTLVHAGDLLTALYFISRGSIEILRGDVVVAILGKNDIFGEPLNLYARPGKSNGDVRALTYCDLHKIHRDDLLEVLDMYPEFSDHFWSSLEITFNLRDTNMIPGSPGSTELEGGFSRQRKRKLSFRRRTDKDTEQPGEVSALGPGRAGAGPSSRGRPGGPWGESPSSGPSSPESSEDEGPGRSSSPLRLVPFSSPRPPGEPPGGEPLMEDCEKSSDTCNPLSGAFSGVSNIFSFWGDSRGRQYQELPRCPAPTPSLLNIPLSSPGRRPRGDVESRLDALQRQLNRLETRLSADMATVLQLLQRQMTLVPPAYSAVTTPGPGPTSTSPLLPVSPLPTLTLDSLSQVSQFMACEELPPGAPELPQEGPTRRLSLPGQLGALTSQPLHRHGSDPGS

Row | SMILES | hERG current change (%, negative = inhibition) at 10uM
1 | N#C/C(=C\c1ccc(Oc2ccc(C(F)(F)F)cc2[N+](=O)[O-])cc1)c1nc2ccccc2[nH]1 | 11.6%
2 | COC(=O)c1ccc(NC(=O)c2nc(S(=O)(=O)Cc3cccc(C)c3)ncc2Cl)cc1 | 6.47%
3 | O=C(O)CC(SCc1ccc(C(=O)O)o1)C(=O)O (stereo not shown) | 6.94%
4 | Cc1coc2c1c(C)cc1oc(=O)c(CC(=O)NCC(=O)NCC(=O)O)c(C)c12 | 13.9%
5 | CN(C)c1ccc(NC(=O)/C=C/c2ccccc2Cl)cc1 | 7.03%
6 | N#Cc1ccc(Oc2ccc(C(F)(F)F)cc2NC(=O)c2ccc(F)cc2)cc1 | -70.2%
7 | COc1cccc(N2C(N)=NC(N)=NC2(C)C)c1.Cl | 12.6%
8 | C/C(=N\NC(=O)c1ccncc1)c1cccs1 | 19.6%
9 | CCOc1ccc(N(CC)C(=O)COc2cc(=O)n(C)c3ccccc23)cc1 | -38.5%
10 | N#Cc1nnn2c1nc(N)c1c(F)cccc12 | 21.5%
11 | O=C(NCCC(=O)N1CCCCC1)c1ccccc1Cl | -14.2%
12 | COc1ccc(NC(=S)NCc2ccc(Cl)cc2)c(OC)c1 | 12%
13 | CC1Cc2ccccc2N1C(=O)CO/N=C/c1ccccc1OC(F)F (stereo not shown) | -3.45%
14 | COCCNC(=S)NNc1cccc(C(=O)O)c1 | -4.05%
15 | O=C(N/N=C/c1cccn1-c1ccc([N+](=O)[O-])cc1)C(O)c1ccccc1 (stereo not shown) | -21.8%
16 | CCN(CC)C(=O)C(=O)c1cn(CCOc2ccccc2)c2ccccc12 | -2.44%
17 | CCNC(=S)Nc1ccc2ncoc2c1 | 13%
18 | Cc1cccc(C(O)(C(=O)NNc2ccc3ccccc3[nH+]2)c2cccc(C)c2)c1.[Cl-] | 5.65%
19 | CC1=CC2=NC(=O)/C(=C\c3ccc(OC(=O)c4ccco4)cc3)C(=N)N2O1 | 10.1%
20 | Cc1noc(C)c1C(=O)Nc1cccc2ncccc12 | 11.2%
21 | Cc1cc(C)nc(SCc2cc(=O)c(OC(=O)c3ccc(S(=O)(=O)N4CCCC4)cc3)co2)n1 | -8.73%
22 | CCCNc1nc(C)cc(-c2cc(C(=O)NCc3ccccc3)on2)n1 | 6.55%
23 | CCCC(=O)Nc1ccc(N2CCN(CC)CC2)c(Cl)c1.Cl | -47.8%
24 | CCOC(=O)c1[nH]c2ccc(OC)cc2c1NC(=O)c1ccc(OC)c(OC)c1 | -21.1%
25 | NC(=O)CNc1ncc(C(F)(F)F)cc1Cl | 18.1%
26 | Cc1cccc(C)c1-n1c(SCC(=O)N2CC(=O)Nc3ccccc32)nc2ccccc2c1=O | -0.373%
27 | C[C@@H](C(=O)Nc1ccc2ccccc2c1)[C@@H]1C[C@@]1(C)[C@@H](NC(=O)c1cnccn1)c1ccccc1 | 0.06%
28 | COc1cccc(/C=C/C(=O)OCC(=O)Nc2ccccc2Sc2ccccc2)c1 | 11.7%

Row | SMILES | hERG current change (%, negative = inhibition) at 10uM
29 | CCCOC(=O)CSc1nnc(-c2ccc(Cl)cc2Cl)o1 | -1.25%
30 | COc1cccc(CN2CCCC(C(=O)c3ccccc3SC)C2)c1O (stereo not shown) | -77.5%
31 | COc1cccc(N2CCN(C(=O)c3cc4cc(Cl)ccc4[nH]3)CC2)c1 | 15.9%
32 | COCCc1nc2ccc(C(=O)N(C)Cc3cccc(-n4nc(C)cc4C)c3)cc2o1 | -32.3%
33 | Cn1c(=O)[nH]c(=O)c2c1nc(NCc1ccco1)n2Cc1ccccc1Cl | 1.72%
34 | COC(=O)c1[nH]c(C)c(/C(O)=C2\C(=O)C(=O)N(CCN(C)C)C2c2ccccc2OC)c1C (stereo not shown) | 15.3%
35 | Cc1cccc(NC(=O)C2CCN(S(C)(=O)=O)CC2)c1C | -1.7%
36 | O=C(Nc1ccccc1N1CCCC1)c1ccc2ccccc2c1 | 8.73%
37 | CNc1nc(-c2ccccc2)nc(-c2ccc(OC)cc2)c1C#N | 1.2%
38 | O=c1[nH]c2c(s1)C(c1ccc(O)cc1)C1C3CCC(C3)C1S2 (stereo not shown) | 9.32%
39 | COc1ccc(/C=N/NC(=O)C2(O)c3ccccc3-c3ccccc32)cc1 | 14.8%
40 | CC1CCCC(NC(=O)CCNC(=O)c2ccc([N+](=O)[O-])cc2)C1C (stereo not shown) | -44.3%
41 | Cc1c(C(=O)NC2CC2)oc2ccc(S(=O)(=O)N3CCCCCC3)cc12 | -41.4%
42 | Cc1cc(OC(C(=O)O)c2ccccc2)c2c(C)c(Cc3ccccc3)c(=O)oc2c1 (stereo not shown) | -2.59%
43 | COc1cc(C(C)=O)ccc1OC(=O)CN1C(=O)c2ccccc2C1=O | 14.1%
44 | C(#Cc1ccccc1)Cn1nnc2ccccc21 | -10.3%
45 | CCCn1c(Nc2ccc(Cl)cc2)nc2ccccc21 | -0.446%
46 | O=C(/C=C/c1ccccc1)NCCc1nc2ccccc2[nH]1 | -46.9%
47 | O=C(O)CCC(NS(=O)(=O)c1ccc(-c2ccccc2)cc1)C(=O)O (stereo not shown) | 12.6%
48 | O=C(NN1CCOCC1)c1cc(-c2cccc(Cl)c2)nc2ccccc12 | -20.1%
49 | O=C(NCc1ccccc1)c1ccc(CS(=O)Cc2ccc(Cl)cc2)o1 (stereo not shown) | -62.5%
50 | C(#CCN1CCOCC1)COC/C=C/c1ccccc1.Cl | 6.94%
51 | N#C/C(=C/c1cccs1)c1nc2ccccc2[nH]1 | 14.5%
52 | O=C(O)CCn1cc(/C=C/C(=O)c2ccc(Cl)cc2)c(-c2cccc(Br)c2)n1 | 8.3%
53 | CCc1ccccc1Nc1nc(N)nc(COC(=O)CCS(=O)(=O)c2ccccc2)n1 | -10.5%
54 | Cc1cc2c(c(=O)n1CC1CCCO1)C(c1ccc3c(c1)OCO3)C(C#N)=C(N)O2 (stereo not shown) | -6.18%
55 | O=NN(CCc1ccncc1)c1ccc(OCc2ccccc2)cc1 | -65.2%
